Experimental data reported in PMC9911399, “Two distinct binding modes provide the RNA-binding protein RbFox with extraordinary sequence specificity”.
Residue numbers refer to the chain shown, from its start. The list shows a part of the results.

T1: RBFOX1 RRM RbFoxmut (Fox-RRM*) (Homo sapiens, UniProt Q9NWB1 109-208, R118D;E147R;N151S;E152T)
T1 sequence: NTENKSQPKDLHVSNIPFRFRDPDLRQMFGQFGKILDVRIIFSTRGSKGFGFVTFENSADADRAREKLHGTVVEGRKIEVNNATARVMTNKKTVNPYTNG

B1: ACCCCUU (DNA:RNA)
RNA: GGGAGACCGGAAUUCAGAUUGUCCACCCCUUUUAAAUCCCGUCGUAGCCACCA
DNA 1: CAATCTGAATTCCGGTCTCCC
DNA 2: TGGTGGCTACGACGGGATT
B2: CGUCCUU (DNA:RNA)
RNA: B1 RNA with A25C, C26G, C27U
DNA 1: CAATCTGAATTCCGGTCTCCC
DNA 2: TGGTGGCTACGACGGGATT
B3: AAGCGAA (DNA:RNA)
RNA: B1 RNA with C26A, C27G, C29G, U30A, U31A
DNA 1: CAATCTGAATTCCGGTCTCCC
DNA 2: TGGTGGCTACGACGGGATT
B4: CGUUCCA (DNA:RNA)
RNA: B1 RNA with A25C, C26G, C27U, C28U, U30C, U31A
DNA 1: CAATCTGAATTCCGGTCTCCC
DNA 2: TGGTGGCTACGACGGGATT
B5: GACACUA (DNA:RNA)
RNA: B1 RNA with A25G, C26A, C28A, U31A
DNA 1: CAATCTGAATTCCGGTCTCCC
DNA 2: TGGTGGCTACGACGGGATT
B6: UGCUACU (DNA:RNA)
RNA: B1 RNA with A25U, C26G, C28U, C29A, U30C
DNA 1: CAATCTGAATTCCGGTCTCCC
DNA 2: TGGTGGCTACGACGGGATT
B7: AUACGAU (DNA:RNA)
RNA: B1 RNA with C26U, C27A, C29G, U30A
DNA 1: CAATCTGAATTCCGGTCTCCC
DNA 2: TGGTGGCTACGACGGGATT
B8: CCCUCCU (DNA:RNA)
RNA: B1 RNA with A25C, C28U, U30C
DNA 1: CAATCTGAATTCCGGTCTCCC
DNA 2: TGGTGGCTACGACGGGATT
B9: ACGAACG (DNA:RNA)
RNA: B1 RNA with C27G, C28A, C29A, U30C, U31G
DNA 1: CAATCTGAATTCCGGTCTCCC
DNA 2: TGGTGGCTACGACGGGATT
B10: UACUCAU (DNA:RNA)
RNA: B1 RNA with A25U, C26A, C28U, U30A
DNA 1: CAATCTGAATTCCGGTCTCCC
DNA 2: TGGTGGCTACGACGGGATT
B11: CCUUAGG (DNA:RNA)
RNA: B1 RNA with A25C, C27U, C28U, C29A, U30G, U31G
DNA 1: CAATCTGAATTCCGGTCTCCC
DNA 2: TGGTGGCTACGACGGGATT
B12: CCAAUGA (DNA:RNA)
RNA: B1 RNA with A25C, C27A, C28A, C29U, U30G, U31A
DNA 1: CAATCTGAATTCCGGTCTCCC
DNA 2: TGGTGGCTACGACGGGATT
B13: CGAACGC (DNA:RNA)
RNA: B1 RNA with A25C, C26G, C27A, C28A, U30G, U31C
DNA 1: CAATCTGAATTCCGGTCTCCC
DNA 2: TGGTGGCTACGACGGGATT
B14: UAUCUGG (DNA:RNA)
RNA: B1 RNA with A25U, C26A, C27U, C29U, U30G, U31G
DNA 1: CAATCTGAATTCCGGTCTCCC
DNA 2: TGGTGGCTACGACGGGATT
B15: UUAGUUG (DNA:RNA)
RNA: B1 RNA with A25U, C26U, C27A, C28G, C29U, U31G
DNA 1: CAATCTGAATTCCGGTCTCCC
DNA 2: TGGTGGCTACGACGGGATT
B16: CCGAAAU (DNA:RNA)
RNA: B1 RNA with A25C, C27G, C28A, C29A, U30A
DNA 1: CAATCTGAATTCCGGTCTCCC
DNA 2: TGGTGGCTACGACGGGATT
B17: UACCGAU (DNA:RNA)
RNA: B1 RNA with A25U, C26A, C29G, U30A
DNA 1: CAATCTGAATTCCGGTCTCCC
DNA 2: TGGTGGCTACGACGGGATT
B18: UCAAAGG (DNA:RNA)
RNA: B1 RNA with A25U, C27A, C28A, C29A, U30G, U31G
DNA 1: CAATCTGAATTCCGGTCTCCC
DNA 2: TGGTGGCTACGACGGGATT
B19: GGUUGCU (DNA:RNA)
RNA: B1 RNA with A25G, C26G, C27U, C28U, C29G, U30C
DNA 1: CAATCTGAATTCCGGTCTCCC
DNA 2: TGGTGGCTACGACGGGATT
B20: CGUUGCU (DNA:RNA)
RNA: B1 RNA with A25C, C26G, C27U, C28U, C29G, U30C
DNA 1: CAATCTGAATTCCGGTCTCCC
DNA 2: TGGTGGCTACGACGGGATT
B21: CUUUGCG (DNA:RNA)
RNA: GGGAGACCGGAAUUCAGAUUGUCCCUUUGCGUUAAAUCCCGUCGUAGCCACCA
DNA 1: CAATCTGAATTCCGGTCTCCC
DNA 2: TGGTGGCTACGACGGGATT
B22: UUUGGCG (DNA:RNA)
RNA: B21 RNA with C25U, U28G
DNA 1: CAATCTGAATTCCGGTCTCCC
DNA 2: TGGTGGCTACGACGGGATT
B23: GUCGACA (DNA:RNA)
RNA: B21 RNA with C25G, U27C, U28G, G29A, G31A
DNA 1: CAATCTGAATTCCGGTCTCCC
DNA 2: TGGTGGCTACGACGGGATT
B24: GUUGCUA (DNA:RNA)
RNA: B1 RNA with A25G, C26U, C27U, C28G, U31A
DNA 1: CAATCTGAATTCCGGTCTCCC
DNA 2: TGGTGGCTACGACGGGATT
B25: CGUGGAA (DNA:RNA)
RNA: B21 RNA with U26G, U28G, C30A, G31A
DNA 1: CAATCTGAATTCCGGTCTCCC
DNA 2: TGGTGGCTACGACGGGATT
B26: UGCCUGA (DNA:RNA)
RNA: B1 RNA with A25U, C26G, C29U, U30G, U31A
DNA 1: CAATCTGAATTCCGGTCTCCC
DNA 2: TGGTGGCTACGACGGGATT
B27: UACAUUU (DNA:RNA)
RNA: B1 RNA with A25U, C26A, C28A, C29U
DNA 1: CAATCTGAATTCCGGTCTCCC
DNA 2: TGGTGGCTACGACGGGATT
B28: UACAAUA (DNA:RNA)
RNA: B1 RNA with A25U, C26A, C28A, C29A, U31A
DNA 1: CAATCTGAATTCCGGTCTCCC
DNA 2: TGGTGGCTACGACGGGATT
B29: GCAUACA (DNA:RNA)
RNA: B21 RNA with C25G, U26C, U27A, G29A, G31A
DNA 1: CAATCTGAATTCCGGTCTCCC
DNA 2: TGGTGGCTACGACGGGATT
B30: UGACGUU (DNA:RNA)
RNA: B1 RNA with A25U, C26G, C27A, C29G
DNA 1: CAATCTGAATTCCGGTCTCCC
DNA 2: TGGTGGCTACGACGGGATT
B31: AUCAUGU (DNA:RNA)
RNA: B1 RNA with C26U, C28A, C29U, U30G
DNA 1: CAATCTGAATTCCGGTCTCCC
DNA 2: TGGTGGCTACGACGGGATT

molecular target: T1, RBFOX1 RRM RbFoxmut (Fox-RRM*); assay: EMSA; HiTS-Eq, 1 nM pool, 10 min; buffer printed only for the single-RNA assays: 10 mM Tris pH 7.5, 150 mM NaCl, 3.4 mM EDTA, 0.001% NP-40, 30 C; details: tags: His6 N-terminal (pET28a); label: 5' 32P
In short: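 Purified wild-type or mutant RbFox RRM at increasing concentrations was equilibrated with 1 nM of 5′-radiolabelled RNA carrying 7 randomized nucleotides for 10 min in 50 µL. Unbound RNA was separated by 8% native PAGE and sequenced. Relative association constants came from read-count changes of each RNA species compared with the control reaction, normalised to the cognate motif.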

Q: With B1 as the binder, how does the binding signal read?
A: 0.0758 KA relative to UGCAUGU

Q: Which binding signal does the source give for B2 here?
A: 0.0862 KA relative to UGCAUGU

Q: For B3, which binding signal is on record?
A: 0.104 KA relative to UGCAUGU

Q: For B4, which binding signal is on record?
A: 0.0597 KA relative to UGCAUGU

Q: For B5, which binding signal is on record?
A: 0.0981 KA relative to UGCAUGU

Q: With B6 as the binder, how does the binding signal read?
A: 0.135 KA relative to UGCAUGU

Q: For B7, which binding signal is on record?
A: 0.07 KA relative to UGCAUGU

Q: How did the binding signal turn out when B8 was run?
A: 0.0815 KA relative to UGCAUGU

Q: With B9 as the binder, how does the binding signal read?
A: 0.26 KA relative to UGCAUGU

Q: Which binding signal does the source give for B10 here?
A: 0.0982 KA relative to UGCAUGU

Q: B11 was tested. Which binding signal did it give?
A: 0.0675 KA relative to UGCAUGU

Q: Which binding signal does the source give for B12 here?
A: 0.112 KA relative to UGCAUGU

Q: How did the binding signal turn out when B13 was run?
A: 0.0925 KA relative to UGCAUGU

Q: Which binding signal does the source give for B14 here?
A: 0.1 KA relative to UGCAUGU

Q: With B15 as the binder, how does the binding signal read?
A: 0.142 KA relative to UGCAUGU

Q: How did the binding signal turn out when B16 was run?
A: 0.0632 KA relative to UGCAUGU

Q: How did the binding signal turn out when B17 was run?
A: 0.0652 KA relative to UGCAUGU

Q: Which binding signal does the source give for B18 here?
A: 0.0769 KA relative to UGCAUGU

Q: How did the binding signal turn out when B19 was run?
A: 0.11 KA relative to UGCAUGU

Q: With B20 as the binder, how does the binding signal read?
A: 0.109 KA relative to UGCAUGU

Q: With B21 as the binder, how does the binding signal read?
A: 0.147 KA relative to UGCAUGU

Q: How did the binding signal turn out when B22 was run?
A: 0.132 KA relative to UGCAUGU

Q: Which binding signal does the source give for B23 here?
A: 0.0624 KA relative to UGCAUGU

Q: Which binding signal does the source give for B24 here?
A: 0.14 KA relative to UGCAUGU

Q: How did the binding signal turn out when B25 was run?
A: 0.153 KA relative to UGCAUGU

Q: For B26, which binding signal is on record?
A: 0.158 KA relative to UGCAUGU

Q: Which binding signal does the source give for B27 here?
A: 0.0855 KA relative to UGCAUGU

Q: B28 was tested. Which binding signal did it give?
A: 0.063 KA relative to UGCAUGU

Q: Which binding signal does the source give for B29 here?
A: 0.144 KA relative to UGCAUGU

Q: For B30, which binding signal is on record?
A: 0.0909 KA relative to UGCAUGU

Q: Which binding signal does the source give for B31 here?
A: 0.167 KA relative to UGCAUGU
